Molecules are shown by their SMILES. Out of some 150,000 compounds screened, about 540 (0.36%) showed an effect of 50% or more. Some of the results follow.

This assay deals with Plasmodium falciparum. The assay can be described thus: Primary screen in NF54 nanoGlo assay, in single point, at 2uM, 72h; a lower Z score goes with more inhibition. Type of assay: functional, Erythrocyte. Conditions: timepoint 72 hour.
Turning to `COc1ccc(OC)c(-c2c(C3c4ccccc4C(=O)N3CC3CCCO3)c3ccccc3n2C)c1` (stereo unspecified), the “% Inhibition” value is given as 18% and the Z score is recorded as -2.28.

Take `CCN(C(=O)c1cccc(S(=O)(=O)N2CCOCC2)c1)c1nc2c(C)cccc2s1`: the “% Inhibition” value is given as 1% and the Z score is -0.12.

Regarding `CS(=O)(=O)N1CCC(C(=O)Nc2cccc3ccccc23)CC1`, the “% Inhibition” value worked out at 9% and the Z score is given as -1.18.

With `O=C(NC1CCCC1)[C@H]1CC(=O)N(c2n[nH]c3cc(Br)ccc23)C1`, the “% Inhibition” value is -2% and the Z score came to 0.3.

For `COc1ccc(NC(=O)c2ccc3nn(CC(=O)Nc4cc(C)ccc4C)c(=O)n3c2)cc1`, the “% Inhibition” value is on record as -29% and the Z score is reported as 2.52.

Consider `CN(C)c1ccc(/C=C/c2c(Cl)cnc3ccccc23)cc1`, for which the “% Inhibition” value is given as -31% and the Z score was 3.63.

As to `O=C(N1CCCC(CN2CCN(c3ccccn3)CC2)C1)C1(O)CCOC1` (stereo unspecified), the “% Inhibition” value is given as -9% and the Z score turned out to be 1.21.

For the molecule `CCCN(CCC)C(=O)C[C@H]1C(=O)NCCN1Cc1ccoc1`, the “% Inhibition” value is -19% and the Z score turned out to be 2.79.

Regarding `COc1cccc2c(N3CCN4C(=O)NC[C@H]4C3)nccc12`, the “% Inhibition” value was -3% and the Z score stood at 0.5.

Regarding `CN(CC(=O)NC1CC1)c1cccc(F)c1C#N`, the “% Inhibition” value was found to be 0% and the Z score is 0.03.

`O=C(c1ccc2[nH]cnc2c1)N1CCN(C(=O)c2cc3n(n2)CCCC3)CC1`: the “% Inhibition” value is recorded as -10% and the Z score worked out at 1.51.

On to `O=C(COc1cccc(Cl)c1)NC[C@@H](c1ccccn1)N1CCOCC1`, for which the “% Inhibition” value was found to be 2% and the Z score was -0.3.

Turning to `Cc1noc(C)c1Cc1ccc(C(=O)N(CCN2CCCC2)C2CCOCC2)o1`, the “% Inhibition” value is -8% and the Z score worked out at 1.24.

For the molecule `Cn1cc(CNC(CC2CCOC2)c2ccccc2)cn1` (stereo unspecified), the “% Inhibition” value is listed as -16% and the Z score was 1.41.

Turning to `CCOC(=O)N1CCN([C@H]2CCCN(C3CCN(c4ccc5c(c4)CCC5)CC3)C2)CC1`, the “% Inhibition” value was -11% and the Z score came to 1.8.

As for `CO[C@@H](C)c1cccc(-c2n[nH]c(C(=O)N(C)C)n2)c1`, the “% Inhibition” value is recorded as -4% and the Z score came out at 0.82.

Regarding `CCC(CC)(OC)c1noc(Cc2ccsc2)n1`, the “% Inhibition” value is 1% and the Z score is -0.07.

Take `O=C(CCC(=O)N1Cc2ccccc2Oc2ncccc21)NC1CCCCC1`: the “% Inhibition” value worked out at 5% and the Z score is on record as -0.6.

Regarding `COc1ccc([C@H](C)NCc2nc(C)cc(C)n2)c(F)c1`, the “% Inhibition” value is -9% and the Z score is recorded as 1.67.

Regarding `CN(C)c1ccc(S(=O)(=O)Nc2ccc([C@H]3C[C@@H]3C(=O)O)cc2)cc1`, the “% Inhibition” value is on record as -6% and the Z score is reported as 0.8.

Turning to `O=C(Nc1ccccc1CCc1ccccn1)N[C@H]1CS(=O)(=O)C[C@@H]1O`, the “% Inhibition” value was -8% and the Z score was 1.04.

For `Oc1ccc(CN2CCO[C@H](c3ccc(Cl)cc3)C2)cc1Cl`, the “% Inhibition” value came out at 0% and the Z score is 0.03.

For the molecule `O=C(Cc1ccc(F)c(Cl)c1F)NCCN1CCC(O)CC1`, the “% Inhibition” value amounted to 9% and the Z score is reported as -0.82.

In general, % Inhibition refers to the drop in the measured response relative to a control, in per cent.

The values above are taken from ChEMBL document CHEMBL4888484, “Replenishing the malaria drug discovery pipeline: Screening and hit evaluation of the MMV Hit Generation Library 1 (HGL1) against asexual blood stage Plasmodium falciparum ,using a nano luciferase reporter read-out” (2022).
